# Experimental data reported in the supplement of paper PMC4604168 (melanoma cell lines).
# The list shows a part of the results. Single values are uncertain, as repeats are few or missing.
# Columns and labels:
# Experiment in all cases: cell count relative to DMSO control; melanoma cells; higher = more viable cells
# Details in all cases: library dose: low library concentration; 72 h
# [1] = system: WM115
# [2] = system: WM1716
# [3] = system: WM1745
# [4] = system: WM3526
# [5] = system: WM3619
# [6] = system: WM451Lu
# 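Note: cell number obtained by counting DAPI-stained nuclei in high-throughput microscope images with image analysis software, screen run in 1,536-well plates.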
Structure (SMILES),cell count [1] [%],cell count [2] [%],cell count [3] [%],cell count [4] [%],cell count [5] [%],cell count [6] [%]
"Nc1cccc2c1CN(C1CCC(=O)NC1=O)C2=O (configuration not stated) [lenalidomide] + CCCCCCCCCCCC1=C(O)C(=O)C=C(O)C1=O [Embelin] (first compound 1 µM, partner dose 1.2 µM)",100,105,97.5,100,115,109
"C#Cc1cccc(Nc2ncnc3cc(OCCOC)c(OCCOC)cc23)c1 [erlotinib] + COc1ccc2c(c1)CCC1C2CCC2(C)C(NCCCCCCN3C(=O)C=CC3=O)CCC12 [U73122] (first compound 0.8 µM, partner dose 0.4 µM)",101,72.8,84.8,102,96.9,108
"Nc1cccc2c1CN(C1CCC(=O)NC1=O)C2=O (configuration not stated) [lenalidomide] + O=C(Nc1ccccc1)c1cc([N+](=O)[O-])ccc1Cl [GW9662] (first compound 1 µM, partner dose 2 µM)",91.2,92.2,97.9,101,73.2,114
"OCc1c[nH]c2ccccc12 [Indole-3-carbinol] + NC(=O)Nc1cc(-c2cccc(F)c2)sc1C(=O)N[C@H]1CCCNC1 [AZD7762] (first compound 0.8 µM, partner dose 0.02 µM)",88.2,92.7,92.6,88.3,77.7,78.6
"Clc1ccc(Nc2nnc(Cc3ccncc3)c3ccccc23)cc1 [vatalanib] + COCC[n+]1c2c(n(Cc3cnccn3)c1C)C(=O)c1ccccc1C2=O [YM155] (first compound 2 µM, partner dose 0.0004 µM)",98.9,90.1,89,118,92.4,88.3
"COCC[n+]1c2c(n(Cc3cnccn3)c1C)C(=O)c1ccccc1C2=O + O=C(Nc1cccc(Cl)c1)Nc1ncc(CCNc2ncnc3ccsc23)s1 [SNS314] (first compound 0.0004 µM, partner dose 0.0008 µM)",83.6,101,109,100,101,40.1
"O=C(CCCCCCC(=O)Nc1ccccc1)NO [vorinostat] + COc1cc(Nc2ncc(F)c(Nc3ccc4c(n3)NC(=O)C(C)(C)O4)n2)cc(OC)c1OC [Tamatinib] (first compound 0.08 µM, partner dose 0.4 µM)",84.3,102,105,100,79.7,73.3
"Cn1c(Nc2ccc(C(F)(F)F)cc2)nc2cc(Oc3ccnc(-c4ncc(C(F)(F)F)[nH]4)c3)ccc21 + CCN(CC)CCCCNc1ncc2cc(-c3cc(OC)cc(OC)c3)c(NC(=O)NC(C)(C)C)nc2n1 [PD173074] (first compound 0.08 µM, partner dose 0.1 µM)",47.9,82.6,71.5,61.8,60.9,108
"Nc1cccc2c1CN(C1CCC(=O)NC1=O)C2=O (configuration not stated) [lenalidomide] + CCN(CC)CCCCNc1ncc2cc(-c3cc(OC)cc(OC)c3)c(NC(=O)NC(C)(C)C)nc2n1 [PD173074] (first compound 1 µM, partner dose 0.1 µM)",106,88.8,92.2,94,116,97.8
"OCc1c[nH]c2ccccc12 [Indole-3-carbinol] + NCC(=O)Nc1ccc(-n2nc(C(F)(F)F)cc2-c2ccc3c(ccc4ccccc43)c2)cc1 [OSU03012] (first compound 0.8 µM, partner dose 1 µM)",78.5,106,110,65.7,99.8,60.4
"Nc1cccc2c1CN(C1CCC(=O)NC1=O)C2=O (configuration not stated) [lenalidomide] + O=c1cc(-c2cccc3c2Sc2ccccc2S3)oc(N2CCOCC2)c1 [KU55933] (first compound 1 µM, partner dose 1 µM)",92.6,115,122,94,136,109
"COCC[n+]1c2c(n(Cc3cnccn3)c1C)C(=O)c1ccccc1C2=O + CCN(CC)CCCCNc1ncc2cc(-c3cc(OC)cc(OC)c3)c(NC(=O)NC(C)(C)C)nc2n1 [PD173074] (first compound 0.0004 µM, partner dose 0.1 µM)",94.5,98.8,89.9,112,92.3,80.6
"C#Cc1cccc(Nc2ncnc3cc(OCCOC)c(OCCOC)cc23)c1 [erlotinib] + O=C(Nc1cccc(Cl)c1)Nc1ncc(CCNc2ncnc3ccsc23)s1 [SNS314] (first compound 0.8 µM, partner dose 0.0008 µM)",85.7,87.4,80.7,92.3,81.6,72.2
"OCc1c[nH]c2ccccc12 [Indole-3-carbinol] + COc1ccc(COc2ccc(Cc3cnc(N)nc3N)cc2OC)cc1 [GW2580] (first compound 0.8 µM, partner dose 1 µM)",102,97.4,107,113,107,96.3
"OCc1c[nH]c2ccccc12 [Indole-3-carbinol] + c1cc(-c2cnn3cc(-c4ccc(OCCN5CCCCC5)cc4)cnc23)ccn1 [Dorsomorphin] (first compound 0.8 µM, partner dose 0.4 µM)",105,98.5,93.4,108,98.3,95
"C#Cc1cccc(Nc2ncnc3cc(OCCOC)c(OCCOC)cc23)c1 [erlotinib] + CCCCCCCCCCCC1=C(O)C(=O)C=C(O)C1=O [Embelin] (first compound 0.8 µM, partner dose 1.2 µM)",88.7,104,77.8,99.8,103,105
"O=C(CCCCCCC(=O)Nc1ccccc1)NO [vorinostat] + N#Cc1c(O)c2c(-c3ccc(-c4ccccc4O)cc3)csc2[nH]c1=O [A769662] (first compound 0.08 µM, partner dose 2 µM)",99.4,127,98,100,109,105
"Nc1cccc2c1CN(C1CCC(=O)NC1=O)C2=O (configuration not stated) [lenalidomide] + Oc1cc(-c2nc(-c3ccccc3)[nH]c2-c2ccncc2)ccc1Cl [L779450] (first compound 1 µM, partner dose 0.2 µM)",86.7,109,85.6,81.9,88.7,137
"COCC[n+]1c2c(n(Cc3cnccn3)c1C)C(=O)c1ccccc1C2=O + COc1cc(Nc2ncc(F)c(Nc3ccc4c(n3)NC(=O)C(C)(C)O4)n2)cc(OC)c1OC [Tamatinib] (first compound 0.0004 µM, partner dose 0.4 µM)",97.2,94.9,69,85.5,98.1,77
"C#Cc1cccc(Nc2ncnc3cc(OCCOC)c(OCCOC)cc23)c1 [erlotinib] + CN(NC(=O)CC(=O)NN(C)C(=S)c1ccccc1)C(=S)c1ccccc1 [STA4783] (first compound 0.8 µM, partner dose 0.006 µM)",80.7,69.6,60.7,86.3,83.9,103
"Nc1cccc2c1CN(C1CCC(=O)NC1=O)C2=O (configuration not stated) [lenalidomide] + Cn1nnc2c(C(N)=O)ncn2c1=O [temozolomide] (first compound 1 µM, partner dose 2 µM)",82.9,104,79.5,96.7,108,94.9
"Nc1cccc2c1CN(C1CCC(=O)NC1=O)C2=O (configuration not stated) [lenalidomide] + Cc1ccc(NC(=O)c2cccc(N(C)C)c2)cc1NC(=O)c1ccc(O)cc1 [ZM336372] (first compound 1 µM, partner dose 2 µM)",114,98,109,106,101,100
"Cn1c(Nc2ccc(C(F)(F)F)cc2)nc2cc(Oc3ccnc(-c4ncc(C(F)(F)F)[nH]4)c3)ccc21 + O=S(=O)(c1ccccc1)N(CC(F)(F)F)c1ccc(C(O)(C(F)(F)F)C(F)(F)F)cc1 [T0901317] (first compound 0.08 µM, partner dose 1.4 µM)",50,67.3,53.1,51.8,67.7,72.9
"COCC[n+]1c2c(n(Cc3cnccn3)c1C)C(=O)c1ccccc1C2=O + c1cc(-c2cnn3cc(-c4ccc(OCCN5CCCCC5)cc4)cnc23)ccn1 [Dorsomorphin] (first compound 0.0004 µM, partner dose 0.4 µM)",88.6,87.1,80.5,90.2,83.4,71.2
"O=C(CCCCCCC(=O)Nc1ccccc1)NO [vorinostat] + COc1cc2c(Oc3ccc4[nH]c(C)cc4c3F)ncnc2cc1OCCCN1CCCC1 [cediranib] (first compound 0.08 µM, partner dose 0.4 µM)",101,116,108,94.2,99,82.6
"Cn1c(Nc2ccc(C(F)(F)F)cc2)nc2cc(Oc3ccnc(-c4ncc(C(F)(F)F)[nH]4)c3)ccc21 + CC(C)(C)c1cnc(CSc2cnc(NC(=O)C3CCNCC3)s2)o1 [SNS-032] (first compound 0.08 µM, partner dose 0.01 µM)",37.5,70.8,60.4,44.9,63.8,84.5
"O=C(CCCCCCC(=O)Nc1ccccc1)NO [vorinostat] + Cn1cncc1[C@@](N)(c1ccc(Cl)cc1)c1ccc2c(c1)c(-c1cccc(Cl)c1)cc(=O)n2C [tipifarnib] (first compound 0.08 µM, partner dose 0.01 µM)",78.5,76.6,93.5,70.3,86.9,83.3
